# Measured values as given in publication PMC4336329 (PLoS ONE, 2015).
# The campaign covered roughly 310,000 compounds. About 14,000 (4.5%) showed an effect of 50% or more. Effects have a minus sign here. This is one part of the list.
# Target: human ether-à-go-go-related gene (hERG) potassium channel (human, UniProt Q12809)
# Experiment: primary screen, population patch clamp on CHO cells stably expressing hERG
# 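Also: peak tail current of the secondary pulse compared with the same well before compound.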
# Chain of human ether-à-go-go-related gene (hERG) potassium channel (Q12809 whole entry, looked up): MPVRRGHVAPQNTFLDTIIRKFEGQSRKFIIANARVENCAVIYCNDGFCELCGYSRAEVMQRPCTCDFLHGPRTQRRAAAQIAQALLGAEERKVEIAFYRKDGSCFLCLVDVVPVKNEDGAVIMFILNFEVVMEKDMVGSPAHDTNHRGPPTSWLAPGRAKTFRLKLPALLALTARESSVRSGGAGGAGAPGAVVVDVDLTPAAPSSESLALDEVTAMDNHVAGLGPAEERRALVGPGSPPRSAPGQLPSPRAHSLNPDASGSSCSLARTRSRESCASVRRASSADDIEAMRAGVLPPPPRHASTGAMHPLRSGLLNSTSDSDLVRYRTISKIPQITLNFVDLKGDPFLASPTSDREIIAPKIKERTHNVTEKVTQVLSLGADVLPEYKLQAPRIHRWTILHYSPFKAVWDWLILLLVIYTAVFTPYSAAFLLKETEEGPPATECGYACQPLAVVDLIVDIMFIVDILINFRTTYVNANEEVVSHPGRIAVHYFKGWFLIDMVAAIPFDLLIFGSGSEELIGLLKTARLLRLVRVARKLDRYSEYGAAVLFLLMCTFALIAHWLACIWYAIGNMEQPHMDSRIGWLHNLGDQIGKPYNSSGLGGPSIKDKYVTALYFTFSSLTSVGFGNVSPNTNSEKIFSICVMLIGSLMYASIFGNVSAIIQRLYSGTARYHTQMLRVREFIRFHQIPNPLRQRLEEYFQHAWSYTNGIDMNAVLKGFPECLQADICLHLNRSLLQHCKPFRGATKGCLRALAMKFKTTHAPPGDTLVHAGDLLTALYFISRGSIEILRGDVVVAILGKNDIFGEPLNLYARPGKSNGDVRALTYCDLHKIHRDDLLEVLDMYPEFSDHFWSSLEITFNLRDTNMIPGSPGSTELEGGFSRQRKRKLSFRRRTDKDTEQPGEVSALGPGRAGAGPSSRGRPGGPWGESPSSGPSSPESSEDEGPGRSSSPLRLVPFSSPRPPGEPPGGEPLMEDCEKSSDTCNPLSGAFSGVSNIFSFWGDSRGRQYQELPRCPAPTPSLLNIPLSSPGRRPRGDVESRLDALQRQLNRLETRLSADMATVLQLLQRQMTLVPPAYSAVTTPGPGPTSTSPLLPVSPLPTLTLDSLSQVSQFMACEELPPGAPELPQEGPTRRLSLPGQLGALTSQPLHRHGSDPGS
row,SMILES,"hERG current change (%, negative = inhibition) at 10uM"
1,OC(COc1ccc2ccccc2c1Br)Cn1cnc(-c2ccccc2)c1 (stereo not drawn),-3.32%
2,Cc1cc(C(=O)Cn2nc(C(=O)O)c3ccccc3c2=O)c(C)n1-c1cccc(C(F)(F)F)c1,-7.37%
3,Cc1ccc2c(c1)C(=O)CC1(CCCC1)O2,9.09%
4,Cc1c(C(=O)N2CCCC2)oc2c1-c1nn(CC(=O)NCCCN3CCCCC3C)cc1CC2 (stereo not drawn),32.1%
5,COC(=O)c1cc(C(=O)OC)cc(-n2c(C)cc(C=O)c2C)c1,-1.18%
6,COc1ccccc1C(=O)Nc1cccc(NC(=O)c2ccccc2OC)n1,8.14%
7,COc1ccc(C2SCCN2S(=O)(=O)c2ccc(F)cc2)cc1OC (stereo not drawn),-4.78%
8,Br.COc1ccc(/C(C)=N/Nc2nc(C)c(C(C)=O)s2)cc1,8.97%
9,CCOC(=O)/C=C/C(=O)Nc1ccc(S(=O)(=O)N(C)c2ccccc2)cc1,-2.23%
10,CC1CC(=S)Nc2ccccc2N1Cc1ccccc1 (stereo not drawn),7.21%
11,CCCCn1c(N)c(N(CCC(C)C)C(=O)CCN2C(=O)C3CC=CCC3C2=O)c(=O)[nH]c1=O (stereo not drawn),7.98%
12,CCN1CCN(C(c2cccs2)C(C)NC(=O)c2cccc(OC)c2)CC1 (stereo not drawn),-4.05%
13,CCCc1cc(C(=O)Nc2ccc(C(=O)c3ccccc3)cc2)n(C)n1,-16%
14,CC(C)N(Cc1ccccc1)C(=O)c1cnc2n(c1=O)CCS2,1.24%
15,Cc1cc(C)c(C#N)c(SCc2nnc(-c3ccccc3)o2)n1,-0.532%
16,CCOC(=O)COn1c(=O)c(-c2cc3ccccc3o2)[n+]([O-])c2ccccc21,11.8%
17,COc1ccc(Cl)cc1NC(=S)N1CCCCCC1,-3.5%
18,Cc1c(C(=O)NCC2COc3ccccc3O2)oc2ccc(S(=O)(=O)N(C)C3CCCCC3)cc12 (stereo not drawn),6.73%
19,CCN(CC)CCN(C(=O)c1ccc(Br)s1)c1nc2cc3c(cc2s1)OCO3.Cl,-12%
20,Cn1cc(S(=O)(=O)Nc2ccc(Oc3ccccc3)cc2)c(=O)n(C)c1=O,4.83%
21,COc1cc(NC(=O)COC(=O)CNC(=O)c2ccc(C)cc2)c(C)cc1[N+](=O)[O-],-8.81%
22,CN(C)c1ccc(/C=N/N2CCN(Cc3ccccc3Cl)CC2)cc1,13.3%
23,CCC(=O)N1CCc2cc(S(=O)(=O)CCC(=O)N3CCCC(C)C3)ccc21 (stereo not drawn),-1.71%
24,Cc1ccccc1OCC(=O)Nc1ccc(N2CCN(S(C)(=O)=O)CC2)cc1,-3.82%
